# Assay results as given in PubChem BioAssay AID651820 (National Center for Advancing Translational Sciences (NCATS), 2012).
# The campaign covered roughly 340,000 compounds. About 12,000 (3.5%) were called active. This list was built around the results that the source calls inconclusive (neither active nor inactive); the mix of calls is not that of the screen. Calls follow the shape of the dose curve; as a rule, active = well fitted inhibition curve with a large enough effect; inconclusive = small, poorly fitted or top-dose-only effect, or another doubt; inactive = no such curve, though single readings can be large or run the other way. Potencies of inconclusive entries are left out as doubtful fits.
# Experiment: qHTS Assay for Inhibitors of Hepatitis C Virus (HCV)
# Conditions: Huh7.5.1 HCVcc-Cre (HCVcc is cell-culture hepatitis C virus) infection, luciferase reporter, 44 h; series mostly up to 41.8 µM
# Method in brief: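 Antiviral activity was scored by luciferase reporter output from cells infected with HCVcc-Cre (~0.5 moi) in presence of compound, 44 h infection period, cells seeded 1,000/well 4 h prior.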
# Potency is read from the fitted curve at half-maximal effect; tags tell the direction and shape of the fitted curve.
row,SMILES,Potency
1,Cc1ccc(NC(=O)C(=O)c2c(-c3ccccc3)cc3ccccn23)cc1S(=O)(=O)N1CCOCC1,"inconclusive [inhibitor, single point]"
2,O=C(Nc1ccccc1)C1CCCN(S(=O)(=O)c2ccc(-n3cnnn3)cc2)C1 (stereo not given),inactive
3,O=C(CN(CC1CCCO1)S(=O)(=O)c1ccc(S(=O)(=O)NCC2CCCO2)cc1)Nc1ccccc1 (stereo not given),"inconclusive [inhibitor, full curve]"
4,Cc1oc(-c2ccccc2F)nc1CN1CCC(C(=O)NC2CCCCCCC2)CC1,"inconclusive [inhibitor, single point]"
5,CCCc1cc(=O)[nH]c(SCC(=O)Nc2sc(C(N)=O)c(C)c2C(=O)OCCOC)n1,"inconclusive [inhibitor, single point]"
6,CCOc1ccc(N(CC(=O)N2CCC(Cc3ccccc3)CC2)S(C)(=O)=O)cc1,"inconclusive [inhibitor, single point]"
7,Cc1sc2ncnc(NCC3CCCO3)c2c1C (stereo not given),active: 12.6 µM
8,Cc1ccc(COC(=O)c2cc(S(=O)(=O)N3CCCCC3)ccc2N2CCOCC2)cc1,"inconclusive [inhibitor, full curve]"
9,COc1cc(C(=O)NCC(=O)N/N=C(C)\C=C\c2ccccc2)cc(OC)c1OC,"inconclusive [inhibitor, partial curve]"
10,CCOc1ccc2nc(N3C(=O)/C(=C/c4ccccc4)NC3=S)sc2c1,"inconclusive [inhibitor, single point]"
11,Cc1ccc2nc(C)c3c(c2c1)N(c1ccccc1)CC3,"inconclusive [inhibitor, single point]"
12,Cc1cc(=O)oc2cc(OCC(=O)N3CCN(c4ccccc4)CC3)ccc12,inactive
13,O=C(Nc1ccccc1F)c1ccc2c(c1)CCN2S(=O)(=O)c1ccccc1,"inconclusive [inhibitor, single point]"
14,CCSc1nccc(-c2nn(-c3ccc(C)cc3)ccc2=O)n1,"inconclusive [inhibitor, partial curve]"
15,CC1CCc2nc(NC(=O)CN3CCN(Cc4ccc5c(c4)OCO5)CC3)sc2C1 (stereo not given),active: 31.6 µM
16,CCN1C(=O)[C@H]2[C@@H](c3ccc(-c4ccc(C(C)=O)cc4)cc3)N[C@@](Cc3ccccc3)(C(=O)OC)[C@H]2C1=O,"inconclusive [inhibitor, full curve]"
17,O=C(N1CCOCC1)N1CCN(Cc2ccccc2)CC1,inactive
18,CCCSc1nc2c(c(=O)[nH]c(=O)n2C)n1Cc1ccc(C)cc1,"inconclusive [inhibitor, single point]"
19,CCOc1ccc(CN(Cc2ccco2)S(=O)(=O)c2ccc(-n3cnnn3)c(OC)c2)cc1,"inconclusive [inhibitor, single point]"
20,COc1ccc(-c2cc(C)no2)cc1S(=O)(=O)N1CCN(C(=O)c2ccco2)CC1,inactive
21,COc1ccc(NC(=O)CN(c2ccccc2)S(=O)(=O)c2ccccc2)c(OC)c1,"inconclusive [inhibitor, single point]"
22,O=C(NCCC1CCCCN1S(=O)(=O)c1ccc(F)cc1)C(=O)NCc1ccncc1 (stereo not given),inactive
23,CCOc1ccc(C(=O)Nc2cc(C)on2)cc1OCC,"inconclusive [inhibitor, partial curve]"

row,SMILES,Potency
1,COc1ccc(S(=O)(=O)N2CCN(C(=O)Cc3cccs3)CC2)cc1,inactive
2,COc1ccc(C(=O)Nc2ccc(OC)c(OC)c2)cc1,inactive
3,CCCCCC(=O)Nc1nc(C)c(-c2csc(Nc3ccccc3OC)n2)s1,inactive
4,COc1cc(OC)cc(-c2c(-c3cccs3)c3cc(-c4ccn[nH]4)ccc3n2C)c1,"inconclusive [inhibitor, partial curve, poor fit]"
5,COc1cc(Cl)ccc1OCc1cc(C(=O)NC(C)Cc2cccnc2)no1 (stereo not given),inactive
6,CCOC(=O)C1CCCN(C(=O)c2cc(S(=O)(=O)N3CCCCC3)ccc2C)C1 (stereo not given),"inconclusive [inhibitor, single point]"
7,COc1cc(/C=N\NC(=O)c2ccc(-c3ccccc3)cc2)cc(OC)c1OC(C)=O,"inconclusive [inhibitor, single point]"
8,COc1cccc(NC(=O)CSc2nc3c(sc4ccccc43)c(=O)n2CCCN2CCCC2)c1,"inconclusive [inhibitor, single point]"
9,Nc1cccnc1Sc1cccc(Cl)c1,inactive
10,CCCCN(CC)Cc1ccc(CNC(=O)Nc2ccc(F)cc2)o1,active: 11.2 µM
11,COc1ccc(NC(=O)N2c3ccc(OC)cc3C(C)=CC2(C)C)cc1,inactive
12,Cc1ccc2nc(NC(=O)c3ccc4c(c3)OCO4)sc2c1,"inconclusive [inhibitor, partial curve]"
13,Cc1cc(C)c(C#N)c(SCC(=O)N2CCCCC2)n1,"inconclusive [inhibitor, partial curve]"
14,CCCOc1ccc(N2C(=O)CC(N(CCOC34CC5CC(CC(C5)C3)C4)C(C)=O)C2=O)cc1 (stereo not given),inactive
15,CCn1c(O)c(/C=N/N=C/c2ccccc2)c2ccc(C3=NNC(=O)CC3)cc21,"inconclusive [inhibitor, partial curve, poor fit]"
16,COc1cccc(C(=O)N2CCN(C(=O)c3cccs3)CC2)c1OC,"inconclusive [inhibitor, single point]"
17,CC(/C=N/Nc1nc(C)cc(C)n1)=C\c1ccc(C(C)C)cc1,inactive
18,Cc1ccccc1Nc1nc(N)nc(COC(=O)CCS(=O)(=O)c2ccccc2)n1,inactive
19,COC(=O)c1cnc(Oc2ccc(NC(=O)NC(=O)c3c(F)cccc3F)cc2)cc1C(F)(F)F,inactive
20,COc1ccccc1/C=C/C=N/NC(=O)Cc1cccn1C,"inconclusive [inhibitor, partial curve]"
21,CN1CCc2c(sc3nc(NN)n(-c4ccc(Cl)cc4)c(=O)c23)C1,"inconclusive [inhibitor, single point]"
22,O=C(CN1CCOCC1)Nc1ccc(-c2nc3ccccc3[nH]2)cc1,inactive
